Assay results as given in PubChem BioAssay AID1508624 (National Center for Advancing Translational Sciences (NCATS), 2021).
Values joined by “and” are separate entries in the source; they are usually repeats but may differ in a detail not shown here. Equal entries are not always repeated. About 120 (0.25%) of roughly 48,000 compounds were called active. Inconclusive results (about 4%) are left out. Calls come from the whole dose curve; as a rule, active = well fitted activation curve with a large enough effect; inconclusive = small, poorly fitted or top-dose-only effect, or another doubt; inactive = no such curve, though single readings can be large or run the other way. Some of the results follow.

experiment: Primary qHTS for Identification of Small Molecule Activators of Huntingtin-Antisense Promoter Activity; settings: HEK293 HTT-AS promoter firefly luciferase reporter, 24 h; at 57.5 µM (top of the series) unless noted; note: nearly all actives have a fitted effect of over 55% in size
Summary of the method: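 Firefly luciferase signal from promoter-reporter HEK293 cells was scaled between vehicle (0%) and zero RLU (-100%). Compounds were tested at final concentrations of up to 57.5 uM over 24 h at 37 degrees C. PTC124 at 50 uM final served as control inhibitor.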

Structure (SMILES) | activity change, positive = activation
CCN(CC)C(=O)c1ccc(NC(=O)Cn2nc(-c3ccc(C)cc3)c3ccccc3c2=O)cc1 | inactive: 4.1% [at 11.5 µM]
O=[N+]([O-])c1c(Cl)c(Cl)cc(Cl)c1Cl | inactive: -5.49% [at 116 µM]
Cc1ccc(N=CN(C)C=Nc2ccc(C)cc2C)c(C)c1 | inactive: 6.28%
CC(C)CC(N(C)C)C1(c2ccc(Cl)cc2)CCC1 (stereo not drawn) | inactive: -8.3% and inactive: -32.1%
O=C(O)COc1nc(Cl)c(Cl)cc1Cl | inactive: -11.4% [at 116 µM, percent change from vehicle, -100% = no light]
C#C[C@]1(O)CC[C@H]2[C@@H]3CCC4=CC(=O)CC[C@]4(C)[C@H]3CC[C@@]21C | inactive: -61%
C[C@@H]1[C@@H](C(=O)C[C@H]2O[C@@H]3O[C@]4(C)CC[C@@H]5[C@H](C)CC[C@@H]([C@H]2C)[C@@]35OO4)O[C@@H]2O[C@]3(C)CC[C@H]4[C@H](C)CC[C@@H]1[C@@]24OO3 | inactive: -19%
CC(C)[N+](C)(CCC(C(N)=O)(c1ccccc1)c1ccccc1)C(C)C | inactive: -2.71%
C[C@]12COC(=O)C[C@@H]1CC[C@@H]1[C@H]2CC[C@@]2(C)[C@H]1CC[C@]2(C)O | inactive: -13%
C[C@H]1[C@@H]2Cc3ccc(O)cc3[C@@]1(C)CCN2C | inactive: -13.4% [at 288 µM]
O=c1[nH]c2ccccc2n1CCCN1CCC(n2c(=O)[nH]c3cc(Cl)ccc32)CC1 | inactive: -17.2% and inactive: -12.6%
COP(=S)(OC)Oc1ccc(SC)c(C)c1 | inactive: -2.5%
Cc1ccc(NC(=O)N(Cc2ccc3c(c2)OCO3)C2CCN(Cc3ccccc3)CC2)cc1Cl | inactive: -24.8%
C[C@]12C=CC(=O)C=C1CC[C@@H]1[C@@H]2CC[C@@]2(C)[C@H]1CC[C@]2(C)O | inactive: -31.6%
CC=C(C)C(=O)O[C@H]1C(C)=C2[C@@H]3OC(=O)[C@@](C)(O)[C@@]3(O)[C@@H](OC(=O)CCC)C[C@](C)(OC(C)=O)[C@@H]2[C@@H]1OC(=O)CCCCCCC | inactive: -33%
C[C@]12CC[C@H]3[C@@H](CCC4=CC(=O)CC[C@@H]43)[C@@H]1CC[C@@H]2O | inactive: -17.2%
COc1cccc(/C=C/c2nc3ccccc3c(=O)n2-c2ccc(Cl)cc2)c1OC | inactive: -17.2% [at 57.5 µM, percent change from vehicle, -100% = no light]
CCCC12CN3CC(CCC)(CN(C1)C3c1ccccn1)C2=O (stereo not drawn) | inactive: 6.45% [at 57.5 µM, percent change from vehicle, -100% = no light]
CC(C)[C@H]1C(=O)N[C@H](CO)Cc2c[nH]c3cccc(c23)N1C | inactive: -27.8%
CC(C)(N)Cc1ccc(Cl)cc1 | inactive: -2.95%
COCCOCCO | inactive: -3.13% [at 116 µM]
Cc1ccc(-n2c(/C=C/c3cccs3)nc3ccccc3c2=O)cc1C | inactive: -27.8%
COc1ccc(CN2CCNCC2)c(OC)c1OC | inactive: -0.23%
CCOc1ccc2nc(NC(=O)c3cccn(Cc4ccccc4)c3=O)sc2c1 | inactive: -25% [at 57.5 µM, percent change from vehicle, -100% = no light]
CSc1ccc(CN2CCN(C(=O)COc3ccc(C)cc3)CC2)cc1 | inactive: -64.6%

Structure (SMILES) | activity change, positive = activation
COc1ccc(OC)c(NC(=O)Cn2cc(C(=O)c3ccccc3)c3ccccc32)c1 | inactive: -36.2%
O=C(Nc1ccc(Cl)cc1C(=O)c1ccccc1)c1cc(Cl)cc(Cl)c1 | inactive: -2.42% [at 57.5 µM, percent change from vehicle, -100% = no light]
NC1CC1c1ccccc1 (stereo not drawn) | inactive: -7.36%
C=C(C)[C@H]1CN[C@H](C(=O)O)[C@H]1CC(=O)O | inactive: -4.25%
C#CC1(O)CCC2C3CCC4=CC(=O)CCC4(C)C3CCC21C (stereo not drawn) | inactive: -15.6%
COc1ccc(-c2nc(CN3C(=O)CN=C(c4ccccc4)c4cc(Cl)ccc43)c(C)o2)cc1 | inactive: -19.6%
CCOc1ccc2nc(NC(=O)c3cccn(Cc4ccc(Cl)cc4)c3=O)sc2c1 | inactive: -22.1% [at 57.5 µM, percent change from vehicle, -100% = no light]
Cc1cc(O)ccc1Cl | inactive: 4.54%
O=C1OC(CCN2CCCCC2)OC1(c1ccccc1)c1ccccc1 (stereo not drawn) | inactive: -8.91%
CCc1ccccc1NC(=O)c1cccn(Cc2ccccc2F)c1=O | inactive: -16.9% [at 57.5 µM, percent change from vehicle, -100% = no light]
CCCC(C)C1(CC)C(=O)N=C(S)NC1=O (stereo not drawn) | inactive: -9.32%
O=C(Nc1ccncc1)C(=O)c1cn(Cc2ccc(Cl)cc2)c2ccccc12 | inactive: -17.6%
Nc1ccccc1C(=O)O | inactive: -4.15%
COc1ccccc1NC(=O)N(Cc1ccc2c(c1)OCO2)C1CCN(Cc2ccccc2)CC1 | inactive: -17.7%
Cc1c(Cl)cccc1NC(=O)CN1C(=O)C(C)N=C(c2ccccc2)c2ccccc21 (stereo not drawn) | inactive: -21.1% [at 57.5 µM, percent change from vehicle, -100% = no light]
CC(C(=O)c1ccccc1)N(C)C (stereo not drawn) | inactive: -8.46%
CCOC(=O)c1c(C(C#N)=CN)c2ccc(Cl)c(Cl)c2n1C | inactive: -17.2%
COc1cc(C(c2c(O)c3ccccc3oc2=O)c2c(C)n(C)n(-c3ccccc3)c2=O)ccc1OCC(=O)O (stereo not drawn) | inactive: -2.35% [at 57.5 µM, percent change from vehicle, -100% = no light]
CN1CCc2cc(Cl)c(O)cc2[C@H]2c3ccccc3CC[C@@H]21 | inactive: -11%
O=C(Nc1ccc(Cl)cc1C(=O)c1ccccc1)c1ccccc1Br | inactive: -14.3%
Nc1c(C(=O)Nc2ccc(Br)cc2F)sc2nc3c(cc12)N1CCC3CC1 | inactive: -18.8%
Cc1cccc(-n2c(/C=C/c3c(C)[nH]c4ccccc34)nc3ccccc3c2=O)c1 | inactive: -14.7% [at 57.5 µM, percent change from vehicle, -100% = no light]
CCN(CC)CCOC(=O)C(C)(c1ccccc1)c1ccccc1 | inactive: -2.83%
CN(C)CCN(C)CCc1ccc(Cl)c(Cl)c1 | inactive: -3.8%
Nc1nc(N)nc(NC2CC2)n1 | inactive: -21.7%

Structure (SMILES) | activity change, positive = activation
Nc1c(C(=O)Nc2ccc(Cl)cc2)sc2nc3c(cc12)N1CCC3CC1 | inactive: -13%
Cn1cc(/C=C/c2nc3ccccc3c(=O)n2-c2ccccc2)c2ccccc21 | inactive: 5.79%
O=C(Nc1ccc2c(c1)OCO2)c1cccn(Cc2cccc(F)c2)c1=O | inactive: -15.5% [at 57.5 µM, percent change from vehicle, -100% = no light]
C[C@]12CCC(=O)C=C1CC[C@@H]1[C@H]3CC[C@](C)(O)[C@@]3(C)CC[C@@H]12 | inactive: -33% [at 116 µM]
C[C@H](N)[C@H](O)c1ccc(O)c(O)c1 | inactive: -5.38%
COc1cc(C(c2c(O)c3ccccc3oc2=O)c2c(C)n(C)n(-c3ccccc3)c2=O)ccc1O (stereo not drawn) | inactive: -18.2% [at 57.5 µM, percent change from vehicle, -100% = no light]
CC(C)N(CCC(C(N)=O)(c1ccccc1)c1ccccn1)C(C)C (stereo not drawn) | inactive: -7.47%
CN1CCN(c2oc(-c3ccc(COc4ccccc4)o3)nc2C#N)CC1 | inactive: -9.65% [at 57.5 µM, percent change from vehicle, -100% = no light]
CC(C)=CCOc1c2occc2cc2ccc(=O)oc12 | inactive: -9.33%
N[C@@H](Cc1ccc(N(CCCl)CCCl)cc1)C(=O)O | inactive: -24.8% and inactive: -17.9%
Cc1nnc(NC(=O)c2cccn(Cc3cccc(Cl)c3)c2=O)s1 | inactive: 1.36% [at 57.5 µM, percent change from vehicle, -100% = no light]
O=c1c2ccccc2nc(/C=C/c2ccccc2)n1-c1ccccc1F | inactive: -20.9% [at 57.5 µM, percent change from vehicle, -100% = no light]
CCC(=O)OC1CCC2C3CCC4=CC(=O)CC[C@@]4(C)C3CC[C@]12C (stereo partly drawn) | inactive: -5.43%
C=CCN1C[C@H](C)N([C@H](c2ccc(C(=O)N(CC)CC)cc2)c2cccc(OC)c2)C[C@H]1C | inactive: 3.02%
Clc1ccc(CO/N=C(\Cn2ccnc2)c2ccc(Cl)cc2Cl)c(Cl)c1 | inactive: -29.4%
C[C@]12CC[C@H]3[C@@H](CCC4=CC(=O)CC[C@@H]43)[C@@H]1CC[C@@H]2OC(=O)CCc1ccccc1 | inactive: -0.0477%
O=C1NCN(c2ccccc2)C12CCN(CC1COc3ccccc3O1)CC2 (stereo not drawn) | inactive: -19.1%
CC(C)(N)Cc1ccccc1Cl | inactive: -4.91%
COC(=O)c1ccc(NC(=O)c2cccn(Cc3ccccc3C)c2=O)cc1 | inactive: -35.5%
c1ccc2nc(N3CCNCC3)ccc2c1 | inactive: 0.396%
Cc1ccc(OCC(=O)Nc2ccc(Cl)cc2C(=O)c2ccccc2)cc1 | inactive: -5.21%
CC1Sc2c(C(=O)O)c(=O)c3cc(F)c(N4CCNCC4)cc3n21 (stereo not drawn) | inactive: 0.11%
O=c1oc2ccccc2c(O)c1C(CC(O)c1ccc(-c2ccc(Br)cc2)cc1)c1ccccc1 (stereo not drawn) | inactive: -17.3%
